T1: RBFOX1 RRM (Homo sapiens, UniProt Q9NWB1 109-208)
T1 sequence: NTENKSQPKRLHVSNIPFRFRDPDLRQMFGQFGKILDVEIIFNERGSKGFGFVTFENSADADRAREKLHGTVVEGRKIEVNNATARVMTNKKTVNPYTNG

B1: AGACCAU (DNA:RNA)
RNA: GGGAGACCGGAAUUCAGAUUGUCCAGACCAUUUAAAUCCCGUCGUAGCCACCA
DNA 1: CAATCTGAATTCCGGTCTCCC
DNA 2: TGGTGGCTACGACGGGATT
B2: AGGUGCU (DNA:RNA)
RNA: B1 RNA with A27G, C28U, C29G, A30C
DNA 1: CAATCTGAATTCCGGTCTCCC
DNA 2: TGGTGGCTACGACGGGATT
B3: AUUGAUU (DNA:RNA)
RNA: B1 RNA with G26U, A27U, C28G, C29A, A30U
DNA 1: CAATCTGAATTCCGGTCTCCC
DNA 2: TGGTGGCTACGACGGGATT
B4: CCGCCAU (DNA:RNA)
RNA: B1 RNA with A25C, G26C, A27G
DNA 1: CAATCTGAATTCCGGTCTCCC
DNA 2: TGGTGGCTACGACGGGATT
B5: UCUUAAA (DNA:RNA)
RNA: B1 RNA with A25U, G26C, A27U, C28U, C29A, U31A
DNA 1: CAATCTGAATTCCGGTCTCCC
DNA 2: TGGTGGCTACGACGGGATT
B6: GGAUUUU (DNA:RNA)
RNA: B1 RNA with A25G, C28U, C29U, A30U
DNA 1: CAATCTGAATTCCGGTCTCCC
DNA 2: TGGTGGCTACGACGGGATT
B7: CCCCUAG (DNA:RNA)
RNA: B1 RNA with A25C, G26C, A27C, C29U, U31G
DNA 1: CAATCTGAATTCCGGTCTCCC
DNA 2: TGGTGGCTACGACGGGATT
B8: ACAUAUC (DNA:RNA)
RNA: B1 RNA with G26C, C28U, C29A, A30U, U31C
DNA 1: CAATCTGAATTCCGGTCTCCC
DNA 2: TGGTGGCTACGACGGGATT
B9: GGAGUUU (DNA:RNA)
RNA: B1 RNA with A25G, C28G, C29U, A30U
DNA 1: CAATCTGAATTCCGGTCTCCC
DNA 2: TGGTGGCTACGACGGGATT
B10: ACCAGAG (DNA:RNA)
RNA: B1 RNA with G26C, A27C, C28A, C29G, U31G
DNA 1: CAATCTGAATTCCGGTCTCCC
DNA 2: TGGTGGCTACGACGGGATT
B11: UGGGCGG (DNA:RNA)
RNA: B1 RNA with A25U, A27G, C28G, A30G, U31G
DNA 1: CAATCTGAATTCCGGTCTCCC
DNA 2: TGGTGGCTACGACGGGATT
B12: CCGCGUC (DNA:RNA)
RNA: B1 RNA with A25C, G26C, A27G, C29G, A30U, U31C
DNA 1: CAATCTGAATTCCGGTCTCCC
DNA 2: TGGTGGCTACGACGGGATT
B13: ACAACAG (DNA:RNA)
RNA: B1 RNA with G26C, C28A, U31G
DNA 1: CAATCTGAATTCCGGTCTCCC
DNA 2: TGGTGGCTACGACGGGATT
B14: AUUAUAG (DNA:RNA)
RNA: B1 RNA with G26U, A27U, C28A, C29U, U31G
DNA 1: CAATCTGAATTCCGGTCTCCC
DNA 2: TGGTGGCTACGACGGGATT
B15: UUGGAUG (DNA:RNA)
RNA: GGGAGACCGGAAUUCAGAUUGUCCUUGGAUGUUAAAUCCCGUCGUAGCCACCA
DNA 1: CAATCTGAATTCCGGTCTCCC
DNA 2: TGGTGGCTACGACGGGATT
B16: UCGAACU (DNA:RNA)
RNA: B15 RNA with U26C, G28A, U30C, G31U
DNA 1: CAATCTGAATTCCGGTCTCCC
DNA 2: TGGTGGCTACGACGGGATT
B17: AGACGUC (DNA:RNA)
RNA: B1 RNA with C29G, A30U, U31C
DNA 1: CAATCTGAATTCCGGTCTCCC
DNA 2: TGGTGGCTACGACGGGATT
B18: AGCUGGA (DNA:RNA)
RNA: B1 RNA with A27C, C28U, C29G, A30G, U31A
DNA 1: CAATCTGAATTCCGGTCTCCC
DNA 2: TGGTGGCTACGACGGGATT
B19: CGUAUUG (DNA:RNA)
RNA: B15 RNA with U25C, U26G, G27U, G28A, A29U
DNA 1: CAATCTGAATTCCGGTCTCCC
DNA 2: TGGTGGCTACGACGGGATT
B20: UCCGGUG (DNA:RNA)
RNA: B15 RNA with U26C, G27C, A29G
DNA 1: CAATCTGAATTCCGGTCTCCC
DNA 2: TGGTGGCTACGACGGGATT
B21: GCAGAUA (DNA:RNA)
RNA: B15 RNA with U25G, U26C, G27A, G31A
DNA 1: CAATCTGAATTCCGGTCTCCC
DNA 2: TGGTGGCTACGACGGGATT
B22: CAACGUA (DNA:RNA)
RNA: B1 RNA with A25C, G26A, C29G, A30U, U31A
DNA 1: CAATCTGAATTCCGGTCTCCC
DNA 2: TGGTGGCTACGACGGGATT
B23: UCGACAA (DNA:RNA)
RNA: B1 RNA with A25U, G26C, A27G, C28A, U31A
DNA 1: CAATCTGAATTCCGGTCTCCC
DNA 2: TGGTGGCTACGACGGGATT
B24: UUGCUAG (DNA:RNA)
RNA: B15 RNA with G28C, A29U, U30A
DNA 1: CAATCTGAATTCCGGTCTCCC
DNA 2: TGGTGGCTACGACGGGATT
B25: CCAUUAG (DNA:RNA)
RNA: B1 RNA with A25C, G26C, C28U, C29U, U31G
DNA 1: CAATCTGAATTCCGGTCTCCC
DNA 2: TGGTGGCTACGACGGGATT
B26: CCUCGUG (DNA:RNA)
RNA: B15 RNA with U25C, U26C, G27U, G28C, A29G
DNA 1: CAATCTGAATTCCGGTCTCCC
DNA 2: TGGTGGCTACGACGGGATT
B27: CGCCCAG (DNA:RNA)
RNA: B1 RNA with A25C, A27C, U31G
DNA 1: CAATCTGAATTCCGGTCTCCC
DNA 2: TGGTGGCTACGACGGGATT
B28: CUACCUU (DNA:RNA)
RNA: B1 RNA with A25C, G26U, A30U
DNA 1: CAATCTGAATTCCGGTCTCCC
DNA 2: TGGTGGCTACGACGGGATT
B29: AUCCAAG (DNA:RNA)
RNA: B1 RNA with G26U, A27C, C29A, U31G
DNA 1: CAATCTGAATTCCGGTCTCCC
DNA 2: TGGTGGCTACGACGGGATT
B30: AUCUUCC (DNA:RNA)
RNA: B1 RNA with G26U, A27C, C28U, C29U, A30C, U31C
DNA 1: CAATCTGAATTCCGGTCTCCC
DNA 2: TGGTGGCTACGACGGGATT
B31: UUCGCGA (DNA:RNA)
RNA: B15 RNA with G27C, A29C, U30G, G31A
DNA 1: CAATCTGAATTCCGGTCTCCC
DNA 2: TGGTGGCTACGACGGGATT

Changes are numbered by the printed parent chain; changes in the protein carry UniProt numbers. Some of the results follow.

This test has as its target T1, RBFOX1 RRM. Nature of the test: EMSA; HiTS-Eq, 1 nM pool, 10 min; buffer printed only for the single-RNA assays: 10 mM Tris pH 7.5, 150 mM NaCl, 3.4 mM EDTA, 0.001% NP-40, 30 C. The following applies: tags: His6 N-terminal (pET28a); label: 5' 32P. In short, it runs like this: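 A pool of RNA with 7 randomized nucleotides, 5′-radiolabelled and with DNA-annealed flanks, was equilibrated at 1 nM for 10 min in 50 µL with purified RbFox RRM, wild type or mutant, across increasing protein concentrations. Free RNA was separated by 8% native PAGE, excised, reverse-transcribed, barcoded by PCR and sequenced. Relative association constants were obtained from read-count changes of each RNA species versus the control reaction and normalised to the cognate motif.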
B1: the binding signal is 0.00117 KA relative to UGCAUGU.
The result for B2 reads 0.0168 KA relative to UGCAUGU.
The figure for B3 is 0.00786 KA relative to UGCAUGU; for B4 it is 0.00241 KA relative to UGCAUGU.
The result for B5 reads 0.00223 KA relative to UGCAUGU; that for B6, 0.0184 KA relative to UGCAUGU; that for B7, 0.00363 KA relative to UGCAUGU.
For the molecule B8, the binding signal was 0.000516 KA relative to UGCAUGU.
The result for B9 reads 0.0247 KA relative to UGCAUGU; that for B10, 0.00454 KA relative to UGCAUGU.
The result for B11 reads 0.0408 KA relative to UGCAUGU.
Take B12: the binding signal is 0.0124 KA relative to UGCAUGU.
The figure for B13 is 0.00147 KA relative to UGCAUGU.
As to B14, the binding signal was 0.00501 KA relative to UGCAUGU.
The result for B15 reads 0.0302 KA relative to UGCAUGU; that for B16, 0.00753 KA relative to UGCAUGU.
The figure for B17 is 0.0085 KA relative to UGCAUGU; for B18 it is 0.00412 KA relative to UGCAUGU; for B19 it is 0.0121 KA relative to UGCAUGU.
The result for B20 reads 0.00817 KA relative to UGCAUGU.
As for B21, the binding signal was 0.007 KA relative to UGCAUGU.
The result for B22 reads 0.000893 KA relative to UGCAUGU; that for B23, 0.00395 KA relative to UGCAUGU.
Turning to B24, the binding signal was 0.0399 KA relative to UGCAUGU.
As for B25, the binding signal was 0.00313 KA relative to UGCAUGU.
The figure for B26 is 0.0157 KA relative to UGCAUGU; for B27 it is 0.00592 KA relative to UGCAUGU.
The figure for B28 is 0.00302 KA relative to UGCAUGU.
The result for B29 reads 0.000223 KA relative to UGCAUGU; that for B30, 0.00367 KA relative to UGCAUGU; that for B31, 0.0161 KA relative to UGCAUGU.

For the origin of these results see PMC9911399, “Two distinct binding modes provide the RNA-binding protein RbFox with extraordinary sequence specificity”.
